# The supplement of paper PMC8728848
# The list shows a part of the results.
# B1: GNL (Galanthus nivalis) (protein)
# chain: MGHHHHHHHHYGTLENGHWLMVGMSIFSKDRTVELRMQDDGKLAIYYNDHCAWQSTAQQVNNAKGAVMQGDGNFCIYDKNGKATWHTNTAAPSGDSHTFVSVQDDGNLVLYKNNGATPIWSSKSNK
# Columns and labels:
# Experiment in all cases: glycan array binding signal (z-score within array); higher = stronger binding
# Conditions in all cases: glycan notation: IUPAC condensed, linker removed
# [1] = target: GlcNAc(b1-4)GlcNAc(b1-4)GlcNAc(b1-4)GlcNAc(b1-4)GlcNAc(b1-4)GlcNAc
# How it was run: (§1)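 Glycan array data came from 3228 arrays in the Consortium for Functional Glycomics database, and only arrays with an available protein sequence were kept. Glycan names were put into IUPAC-condensed notation, and columns mapping to the same glycan were averaged. The binding signal is a within-array Z-score, averaged across arrays of one protein sequence run at different concentrations or buffers and across linkers. A negative Z-score can be read as non-binding.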
# [2] = target: GlcNAc(b1-4)[GlcNAc(b1-6)]GalNAc
# How it was run: as §1
# [3] = target: GlcNAc(b1-6)Gal(b1-4)GlcNAc
# How it was run: as §1
# GlcNAc(b1-6)GalNAc = target: GlcNAc(b1-6)GalNAc
# How it was run: as §1
# [4] = target: GlcNAc6S(b1-3)Gal(b1-4)GlcNAc
# How it was run: as §1
# Kdn(a2-3)Gal(b1-3)GalNAc = target: Kdn(a2-3)Gal(b1-3)GalNAc
# How it was run: as §1
# Kdn(a2-3)Gal(b1-3)GlcNAc = target: Kdn(a2-3)Gal(b1-3)GlcNAc
# How it was run: as §1
# Kdn(a2-3)Gal(b1-4)Glc = target: Kdn(a2-3)Gal(b1-4)Glc
# How it was run: as §1
# Kdn(a2-3)Gal(b1-4)GlcNAc = target: Kdn(a2-3)Gal(b1-4)GlcNAc
# How it was run: as §1
# [5] = target: Kdn(a2-3)Gal(b1-4)[Fuc(a1-3)]GlcNAc
# How it was run: as §1
# Kdn(a2-6)Gal(b1-4)GlcNAc = target: Kdn(a2-6)Gal(b1-4)GlcNAc
# How it was run: as §1
# [6] = target: Man(a1-2)Man(a1-2)Man(a1-3)Man
# How it was run: as §1
# [7] = target: Man(a1-2)Man(a1-2)Man(a1-6)[Man(a1-3)]Man
# How it was run: as §1
# Man(a1-2)Man(a1-3)Man = target: Man(a1-2)Man(a1-3)Man
# How it was run: as §1
# [8] = target: Man(a1-2)Man(a1-3)[Man(a1-2)Man(a1-6)]Man
# How it was run: as §1
# [9] = target: Man(a1-2)Man(a1-3)[Man(a1-2)Man(a1-6)]Man(a1-6)[Man(a1-2)Man(a1-2)Man(a1-3)]Man
# How it was run: as §1
# [10] = target: Man(a1-2)Man(a1-3)[Man(a1-2)Man(a1-6)]Man(a1-6)[Man(a1-2)Man(a1-2)Man(a1-3)]Man(b1-4)GlcNAc(b1-4)GlcNAc
# How it was run: as §1
# [11] = target: Man(a1-2)Man(a1-3)[Man(a1-6)]Man(a1-6)[Man(a1-2)Man(a1-3)]Man(b1-4)GlcNAc(b1-4)GlcNAc
# How it was run: as §1
# [12] = target: Man(a1-2)Man(a1-6)[Man(a1-3)]Man(a1-6)[Man(a1-2)Man(a1-2)Man(a1-3)]Man
# How it was run: as §1
# [13] = target: Man(a1-2)Man(a1-6)[Man(a1-3)]Man(a1-6)[Man(a1-2)Man(a1-2)Man(a1-3)]Man(b1-4)GlcNAc(b1-4)GlcNAc
# How it was run: as §1
# Man(a1-3)[Man(a1-6)]Man = target: Man(a1-3)[Man(a1-6)]Man
# How it was run: as §1
# [14] = target: Man(a1-3)[Man(a1-6)]Man(a1-6)[Man(a1-2)Man(a1-3)]Man(b1-4)GlcNAc(b1-4)GlcNAc
# How it was run: as §1
# [15] = target: Man(a1-3)[Man(a1-6)]Man(a1-6)[Man(a1-3)]Man
# How it was run: as §1
# [16] = target: Man(a1-3)[Man(a1-6)]Man(a1-6)[Man(a1-3)]Man(b1-4)GlcNAc(b1-4)GlcNAc
# How it was run: as §1
# [17] = target: Man(a1-3)[Man(a1-6)]Man(b1-4)GlcNAc(b1-4)GlcNAc
# How it was run: as §1
# [18] = target: Man(a1-3)[Man(a1-6)]Man(b1-4)GlcNAc(b1-4)[Fuc(a1-6)]GlcNAc
# How it was run: as §1
# Man(a1-6)Man = target: Man(a1-6)Man
# How it was run: as §1
# Man(b1-4)GlcNAc = target: Man(b1-4)GlcNAc
# How it was run: as §1
# MurNAc(b1-4)GlcNAc = target: MurNAc(b1-4)GlcNAc
# How it was run: as §1
# Neu5Ac(a2-3)Gal = target: Neu5Ac(a2-3)Gal
# How it was run: as §1
# [19] = target: Neu5Ac(a2-3)Gal(b1-3)GalNAc
# How it was run: as §1
# [20] = target: Neu5Ac(a2-3)Gal(b1-3)GalNAc(b1-3)Gal(a1-4)Gal(b1-4)Glc
# How it was run: as §1
# [21] = target: Neu5Ac(a2-3)Gal(b1-3)GalNAc(b1-4)[Neu5Ac(a2-3)]Gal(b1-4)Glc
# How it was run: as §1
# [22] = target: Neu5Ac(a2-3)Gal(b1-3)GalNAc(b1-4)[Neu5Ac(a2-8)Neu5Ac(a2-3)]Gal(b1-4)Glc
# How it was run: as §1
# [23] = target: Neu5Ac(a2-3)Gal(b1-3)GalNAc6S
# How it was run: as §1
# [24] = target: Neu5Ac(a2-3)Gal(b1-3)GlcNAc
# How it was run: as §1
# [25] = target: Neu5Ac(a2-3)Gal(b1-3)GlcNAc(b1-2)Man
# How it was run: as §1
# [26] = target: Neu5Ac(a2-3)Gal(b1-3)GlcNAc(b1-2)Man(a1-3)[GlcNAc(b1-4)][Neu5Ac(a2-3)Gal(b1-3)GlcNAc(b1-2)Man(a1-6)]Man(b1-4)GlcNAc(b1-4)GlcNAc
# How it was run: as §1
# [27] = target: Neu5Ac(a2-3)Gal(b1-3)GlcNAc(b1-2)Man(a1-3)[Neu5Ac(a2-3)Gal(b1-3)GlcNAc(b1-2)Man(a1-6)]Man(b1-4)GlcNAc(b1-4)GlcNAc
# How it was run: as §1
# [28] = target: Neu5Ac(a2-3)Gal(b1-3)GlcNAc(b1-3)Gal(b1-3)GlcNAc
# How it was run: as §1
# [29] = target: Neu5Ac(a2-3)Gal(b1-3)GlcNAc(b1-3)Gal(b1-4)GlcNAc
# How it was run: as §1
# [30] = target: Neu5Ac(a2-3)Gal(b1-3)GlcNAc(b1-3)GalNAc
# How it was run: as §1
# [31] = target: Neu5Ac(a2-3)Gal(b1-3)GlcNAc(b1-4)Gal(b1-4)Glc
# How it was run: as §1
# [32] = target: Neu5Ac(a2-3)Gal(b1-3)GlcNAc(b1-6)GalNAc
# How it was run: as §1
# [33] = target: Neu5Ac(a2-3)Gal(b1-3)GlcNAc6S
# How it was run: as §1
binder,measurement,setting,value
B1,glycan array binding signal (z-score),[1],-0.24
same,glycan array binding signal (z-score),[2],-0.138
same,glycan array binding signal (z-score),[3],-0.16
same,glycan array binding signal (z-score),GlcNAc(b1-6)GalNAc,-0.208
same,glycan array binding signal (z-score),[4],-0.28
same,glycan array binding signal (z-score),Kdn(a2-3)Gal(b1-3)GalNAc,-0.131
same,glycan array binding signal (z-score),Kdn(a2-3)Gal(b1-3)GlcNAc,-0.225
same,glycan array binding signal (z-score),Kdn(a2-3)Gal(b1-4)Glc,-0.171
same,glycan array binding signal (z-score),Kdn(a2-3)Gal(b1-4)GlcNAc,-0.152
same,glycan array binding signal (z-score),[5],-0.233
same,glycan array binding signal (z-score),Kdn(a2-6)Gal(b1-4)GlcNAc,-0.17
same,glycan array binding signal (z-score),[6],-0.3
same,glycan array binding signal (z-score),[7],-0.206
same,glycan array binding signal (z-score),Man(a1-2)Man(a1-3)Man,-0.18
same,glycan array binding signal (z-score),[8],-0.244
same,glycan array binding signal (z-score),[9],-0.23
same,glycan array binding signal (z-score),[10],-0.164
same,glycan array binding signal (z-score),[11],-0.207
same,glycan array binding signal (z-score),[12],-0.213
same,glycan array binding signal (z-score),[13],-0.229
same,glycan array binding signal (z-score),Man(a1-3)[Man(a1-6)]Man,-0.186
same,glycan array binding signal (z-score),[14],-0.212
same,glycan array binding signal (z-score),[15],-0.247
same,glycan array binding signal (z-score),[16],-0.2
same,glycan array binding signal (z-score),[17],0.628
same,glycan array binding signal (z-score),[18],0.605
same,glycan array binding signal (z-score),Man(a1-6)Man,-0.258
same,glycan array binding signal (z-score),Man(b1-4)GlcNAc,-0.162
same,glycan array binding signal (z-score),MurNAc(b1-4)GlcNAc,-0.228
same,glycan array binding signal (z-score),Neu5Ac(a2-3)Gal,-0.207
same,glycan array binding signal (z-score),[19],-0.265
same,glycan array binding signal (z-score),[20],-0.196
same,glycan array binding signal (z-score),[21],-0.286
same,glycan array binding signal (z-score),[22],-0.234
same,glycan array binding signal (z-score),[23],-0.27
same,glycan array binding signal (z-score),[24],-0.161
same,glycan array binding signal (z-score),[25],-0.208
same,glycan array binding signal (z-score),[26],-0.228
same,glycan array binding signal (z-score),[27],-0.122
same,glycan array binding signal (z-score),[28],-0.212
same,glycan array binding signal (z-score),[29],-0.257
same,glycan array binding signal (z-score),[30],-0.239
same,glycan array binding signal (z-score),[31],-0.298
same,glycan array binding signal (z-score),[32],-0.194
same,glycan array binding signal (z-score),[33],-0.203
